The values below come from the supplement of paper PMC6135742.

The structures appear in SMILES notation. Counter-ions that a name gives are not always drawn. ± gives the standard deviation of the averaged measurements. The full ranking holds about 2,600 compounds; the median of “total cell number (DAPI+ nuclei) relative to DMSO vehicle control” is about -1.4, and the lowest 2% start at about -23. This is one part of the list.

The subject of this assay is jimpy (Plp1 jimpy) mouse iPSC-derived oligodendrocyte progenitor cells. The experiment in a line: total cell number (DAPI+ nuclei) relative to DMSO vehicle control (SDs above negative control mean); higher = more surviving cells. The following applies: 10 µM; 3 days. The protocol:
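Primary phenotypic screen of >3,000 bioactive compounds (Selleck L1700 and Sigma LO1280 libraries) at a single dose of 10 µM. Compounds were added to jimpy (Plp1 mutant) mouse iPSC-derived OPCs at the start of thyroid hormone-induced oligodendrocyte differentiation, one well per compound in 384-well plates. After 3 days cells were stained for MBP, Sox10 and DAPI and imaged with an Operetta system. MBP+ oligodendrocyte number and total cell number were expressed as the number of SDs above the mean of the DMSO negative control on the same plate (n=16 control wells per plate). Hits were defined as >=4 SD for oligodendrocytes and >=2 SD for total cells.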
`NCCCP(=O)(O)O` [3-Aminopropylphosphonic acid] had a total cell number of -1.08.

For the compound `NCC(O)c1ccc(O)cc1` (racemic) [(+,-)-Octopamine HCl], the total cell number was -1.15.

For `NCC(O)c1ccc(O)cc1` (racemic) [(±)-Octopamine hydrochloride], the total cell number is -1.1.

Consider `C[C@@H]1O[C@@H](O[C@H]2C[C@@H](O)[C@]3(CO)[C@H]4[C@H](O)C[C@]5(C)[C@@H](C6=CC(=O)OC6)CC[C@]5(O)[C@@H]4CC[C@]3(O)C2)[C@H](O)[C@H](O)[C@H]1O` [Ouabain], for which the total cell number was determined as 4.31 ± 5.1.

With `Clc1cc(I)cc(Cl)c1NC1=NCCN1` [p-Iodoclonidine hydrochloride], the total cell number is -1.3.

Turning to `C[C@@H](N)Cc1cnc[nH]1` [Histamine, R(-)-alpha-methyl-, dihydrochloride], the total cell number was -0.785.

In turn, `CCC1(c2ccc(N)cc2)CCC(=O)NC1=O` (stereo unspecified) [Aminoglutethimide] showed a total cell number of -5.69.

As to `C[N+]1(C)CCN(c2ccccc2)CC1` [1,1-Dimethyl-4-phenyl-piperazinium iodide], the total cell number is -0.947.

For `CCN(C)C(=O)Oc1cccc([C@H](C)N(C)C)c1` [Rivastigmine Tartrate], the total cell number was -0.723.

Compound `NC(=O)COc1c(F)cc(SCCNS(=O)(=O)c2ccccc2)cc1F` displayed a total cell number of -1.95.

In turn, `CCCN1CCC[C@H](c2cccc(O)c2)C1` [R(+)-3PPP hydrochloride] came in with a total cell number of -0.98.

The compound `CN(C(=O)Cc1ccc(Cl)c(Cl)c1)C(CN1CCCC1)c1cccc(OCC(=O)O)c1` (stereo unspecified) [ICI 204,448 hydrochloride] displayed a total cell number of 0.46.

`NCCc1ccc(O)cc1` [4-Hydroxyphenethylamine hydrochloride]: the total cell number is -0.125.

On to `CCn1cc(C(=O)O)c(=O)c2cc3c(cc21)OCO3` [Oxolinic acid], for which the total cell number was -2.76.

`C[C@]12CC[C@H](O)C[C@@H]1CC[C@@H]1[C@@H]2CC[C@]2(C)C(=O)CC[C@@H]12` [Epiandrosterone]: the total cell number is -11.1.

`C[N+]1(C)[C@@H]2C[C@@H](OC(=O)[C@H](CO)c3ccccc3)C[C@H]1[C@@H]1O[C@@H]12` [Methscopolamine] came in with a total cell number of -2.37.

In the case of `C[N+]1(C)[C@@H]2C[C@@H](OC(=O)[C@H](CO)c3ccccc3)C[C@H]1[C@@H]1O[C@@H]12` [(-)-Scopolamine methyl bromide], the total cell number is -1.83.

In turn, `CCN1C[C@]2(COC)[C@H](O)C[C@H](OC)[C@@]34[C@@H]5C[C@@]6(O)[C@H](OC(=O)c7ccccc7)[C@@H]5[C@@](OC(C)=O)([C@@H]([C@H](OC)[C@H]23)[C@@H]14)[C@@H](O)[C@@H]6OC` [Aconitine] gave a total cell number of -0.0482.

With `c1ccc2c(c1)[I+]c1ccccc1-2` [Diphenyleneiodonium chloride], the total cell number was -10.5.

`CC(N)Cc1cccc(C(F)(F)F)c1` (single isomer, unassigned; (+)) [(+)-Norfenfluramine hydrochloride] came in with a total cell number of -0.695.

`CNc1ccc2oc(C[C@H]3O[C@@]4(CC[C@H]3C)O[C@H]([C@H](C)C(=O)c3ccc[nH]3)[C@H](C)C[C@H]4C)nc2c1C(=O)O` [Calcimycin] yielded a total cell number of -12.8.

Compound `CCCN1CCc2cccc3c2[C@H]1Cc1ccc(O)c(O)c1-3` [R(-)-Propylnorapomorphine hydrochloride] had a total cell number of -5.94.

Turning to `CC(=O)NBr` [N-Bromoacetamide], the total cell number was -0.843.

For the compound `CC(C)NP(=O)(NC(C)C)OP(=O)(NC(C)C)NC(C)C` [Tetraisopropyl pyrophosphoramide], the total cell number was -0.638.

In turn, `Cc1c2ccncc2c(C)c2c1[nH]c1ccccc12` [Ellipticine] yielded a total cell number of -11.1.

With `O=P1(NCCCl)OCCCN1CCCl` (stereo unspecified) [Ifosfamide], the total cell number was -2.07.

Compound `Oc1ccc2c3c1O[C@H]1c4oc5ccccc5c4C[C@@]4(O)[C@@H](C2)N(CC2CC2)CC[C@]314` [Naltriben methanesulfonate] registered a total cell number of -3.96.

In turn, `CN1CC[C@@]2(C)c3cc(OC(=O)Nc4ccccc4)ccc3N(C)[C@@H]12` [Phenserine] yielded a total cell number of -2.32.

`N#CCCN` [3-Aminopropionitrile fumarate] gave a total cell number of -2.24.

In turn, `NC(=O)CN1CCCC1=O` [Piracetam] had a total cell number of -1.06 ± 0.74.

Compound `Cc1ccc(S(=O)(=O)N[C@@H](CCCCN)C(=O)CCl)cc1` [Na-p-Tosyl-L-lysine chloromethyl ketone hydrochloride] had a total cell number of -1.34.

The compound `CCCN1CCC[C@@H](c2cccc(O)c2)C1` [S(-)-3PPP hydrochloride] had a total cell number of -2.58.

The compound `O=C(Oc1ccc([N+](=O)[O-])cc1)N1CCC(C(O)(c2ccc3c(c2)OCO3)c2ccc3c(c2)OCO3)CC1` displayed a total cell number of 1.26.

In turn, `Cc1cccc(C)c1NC1=NCCCS1` [Xylazine hydrochloride] yielded a total cell number of -0.676.

`Cc1cccc(C)c1NC1=NCCCS1` [Xylazine HCl] came in with a total cell number of -0.661.

`O=C1CCC[C@@H]2[C@H]3CCCN4CCC[C@@H](CN12)[C@@H]34` [(+)-Matrine] returned a total cell number of 2.62.

Consider `CCNC(=O)[C@H]1O[C@@H](n2cnc3c(N)ncnc32)[C@H](O)[C@@H]1O` [5'-N-Ethylcarboxamidoadenosine], for which the total cell number was -0.826.

Compound `COc1cc2c(cc1OC)C1CC(=O)C(CC(C)C)CN1CC2` (stereo unspecified) [Tetrabenazine] had a total cell number of -0.277.

`NCCc1c[nH]c2ccccc12` [Tryptamine hydrochloride] returned a total cell number of -0.554.

As for `Clc1ccc(N2C[C@H]3CC[C@@H](C2)N3)nn1`, the total cell number is -0.523.

Turning to `O=C(O[C@H]1C[N+]2(CCCOc3ccccc3)CCC1CC2)C(O)(c1cccs1)c1cccs1` [Aclidinium Bromide], the total cell number was 4.34.

`CC(C)(C)[C@]1(O)CC2OC(=O)CC23C(=O)OC2OC(=O)[C@H](O)C231` (stereo partly specified) [Bilobalide] returned a total cell number of 1.36.

The compound `Cc1cc(SCc2sc(-c3ccc(C(F)(F)F)c(F)c3)nc2C)ccc1OCC(=O)O` gave a total cell number of 0.239.

Take `CC[C@@H]1/C=C/C=C/C[C@H](C)[C@H](O)[C@](C)(O)C(=O)[C@H](C)[C@@H](O)[C@H](C)C(=O)[C@H](C)[C@@H](O)[C@H](C)/C=C/C(=O)O[C@H]2[C@@H](C)[C@@H](CC1)O[C@@]1(CC[C@@H](C)[C@@H](C[C@H](C)O)O1)[C@@H]2C` [Oligomycin A]: the total cell number is -27.5.

The compound `CCCN(CCC)CCc1ccc(O)c(O)c1` [Dipropyldopamine hydrobromide] registered a total cell number of -2.32.

With `Ic1ccccc1CNC1C2CCN(CC2)C1C(c1ccccc1)c1ccccc1` [L-703,606 oxalate salt hydrate], the total cell number is -11.4.
